# PubChem BioAssay AID1508623 (National Center for Advancing Translational Sciences (NCATS), 2021)
# Among all 48,000 compounds or so, about 450 (0.94%) were called active. Inconclusive results (about 19%) are left out. Calls follow the shape of the dose curve; as a rule, active = well fitted inhibition curve with a large enough effect; inconclusive = small, poorly fitted or top-dose-only effect; inactive = no such curve, though single readings can be large or run the other way. This is one part of the list.
# Assay: Primary qHTS for Identification of Small Molecule Inhibitors of Huntingtin Promoter Activity; also: nearly all actives have a fitted effect of over 50% in size
# Settings: HEK293 HTT promoter firefly luciferase reporter (activity 0% = vehicle and -100% = no light), 24 h; series mostly up to 57.5 µM; activity change, negative = inhibition: at the top concentration
# How it was run: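 Firefly luciferase readout (Dual-Glo, 10 min RT) after 24 h, 37 °C compound exposure (final up to 57.5 uM) of HEK293 reporter cells cultured 24 h beforehand; PTC124 at 50 uM final as control inhibitor; activity scaled vehicle 0%, zero RLU -100%.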
row,Compound,"activity change, negative = inhibition"
1,CCC(Sc1nnc2c(n1)[nH]c1ccccc12)C(=O)Nc1ccccc1OC (centres undefined),inactive: -0.837%
2,Cc1cc(C)cc(C(=O)NCCc2csc(-c3ccc(C(F)(F)F)cc3)n2)c1,inactive: -19.3%
3,CCc1ccccc1NC(=O)CSc1ncc2c(n1)-c1cc(Cl)ccc1N(Cc1ccccc1)S2(=O)=O,inactive: -15.7%
4,COc1ccc(CCNC(=O)CCc2c(C)nc3c4cccnc4nn3c2C)cc1OC,inactive: 0.767%
5,CCCCn1cc(S(=O)(=O)c2ccc(OC)cc2)c(=O)c2cc(F)c(N3CCOCC3)cc21,inactive: 3.42%
6,Cc1c(C(=O)OCC2CCCCC2)[nH]c2c1C(=O)CC(c1ccccc1Cl)C2 (centres undefined),inactive: -2.37%
7,CCc1ccc(-n2nc(C)c3c(C)cc(=O)n(CC(=O)Nc4cc(C)ccc4C)c32)cc1,inactive: -19.2%
8,COc1ccc(NC(=O)c2ncn(-c3ccccc3)n2)cc1Cl,inactive: 58.6%
9,CC(=O)Nc1c(C)nn(-c2ccccc2)c1N1CCC(C(=O)Nc2cc(F)ccc2F)CC1,inactive: 3.24%
10,Cc1ccc(N2C(=O)c3n[nH]c(C)c3C2c2ccccc2Cl)cc1 (centres undefined),inactive: -18.7%
11,COc1ccccc1NC(=O)N1CCN(Cc2nc3ccc(C)cc3o2)CC1,inactive: -18.6%
12,Cn1cc(S(=O)(=O)N2CCCC2)cc1C(=O)N1CCN(c2cccc(Cl)c2)CC1,inactive: -24.2%
13,Cc1cc(C)c(NC(=O)Cn2c(=O)n(CC3CCCO3)c(=O)c3ccccc32)c(C)c1 (centres undefined),inactive: -7.18%
14,Cc1ccc2oc(C(=O)Nc3ccc(S(=O)(=O)N4CCCCCC4)cc3)cc(=O)c2c1,inactive: -4.24%
15,CCc1ccc(NC(=O)c2sc(-n3nc(C)c(Cc4ccc5c(c4)OCO5)c3C)nc2C)cc1,inactive: 0.279%
16,CCOc1ccccc1NC(=O)Cn1c(=O)n(-c2ccc(C)c(C)c2)c(=O)c2oc3ccccc3c21,inactive: 5.01%
17,O=C(Oc1ccccc1F)c1nc(SCc2ccccc2F)ncc1Cl,inactive: -5.96%
18,COc1ccccc1NC(=O)Cn1nc2c3cc(F)ccc3n(Cc3cccc(C)c3)cc-2c1=O,inactive: 9.93%
19,CC(C)Cn1cnc2c(N)nc3ccccc3c21,inactive
20,CCN1CCC(N(Cc2ccc3c(c2)OCO3)C(=O)Nc2cccc(C)c2C)CC1,inactive: -4.61%

row,Compound,"activity change, negative = inhibition"
1,COc1ccc(Nc2ncc3c(n2)CCN(Cc2cccc(F)c2F)C3)c(OC)c1,inactive: -1.68%
2,Cc1ccc2nc(-c3cccc(NC(=O)CSc4ccc(Cl)cc4)c3)oc2c1,inactive: 29.1%
3,CCc1ccc(Nc2nc3c(S(=O)(=O)c4ccc(C)cc4)nnn3c3ccsc23)cc1,inactive: -13.5%
4,Cc1ccc(S(=O)(=O)c2nnn3c2nc(N2CCCC(C)C2)c2cc(Cl)ccc23)cc1C (centres undefined),inactive: -2.41%
5,Cc1ccc(NC(=O)Cn2c(=O)n(-c3ccccc3)c(=O)c3ccc(C(=O)NCc4ccc5c(c4)OCO5)cc32)cc1,inactive: -22.4%
6,CCN(C(=O)Cn1cc(S(=O)(=O)N2CCN(c3ccccc3F)CC2)c2ccccc2c1=O)c1ccc(C)c(C)c1,inactive: -12.2%
7,Oc1c(C(c2ccccc2Cl)N2CCC(O)CC2)sc2nc(-c3ccco3)nn12 (centres undefined),inactive: 12.8%
8,Cc1nnc2c3ccccc3nc(Nc3ccccc3C(=O)O)n12,inactive: -26.9%
9,COc1ccc(S(=O)(=O)Nc2cc(-c3cn4ccc(C)cc4n3)ccc2C)cc1OC,inactive: 16%
10,CCn1ccc2cc(S(=O)(=O)N3CCC(C(=O)NCC(C)c4ccccc4)CC3)ccc21 (centres undefined),inactive: -19%
11,Cc1ccc(-n2ncc(C(=O)NCc3ccccn3)c2C2CCN(C(=O)OC(C)(C)C)CC2)cc1C,inactive: -17.8%
12,COc1cccc(CNC(=O)C2CCN(Cc3cc4ccccc4n3Cc3ccccc3)CC2)c1OC,inactive: -19.6%
13,Cc1ccc(NC(=O)CSc2nc3ccccc3nc2Cc2ccccc2)c(Cl)c1,inactive: -8.51%
14,Cc1ccc(CN2c3ccccc3-c3nc(SCC(=O)NCCc4ccccc4)ncc3S2(=O)=O)cc1,inactive: -18.2%
15,CCOC(=O)c1cccc(NC(=O)CSc2cc(=O)n(C)c3ccccc23)c1,inactive: -24.4%
16,CCOC(=O)c1ccc(Oc2nc(C)nc3c2oc2ccccc23)cc1,inactive: -17.6%
17,Cc1nnsc1C(=O)Oc1ccc(C#N)cc1,inactive: -3.89%
18,O=C(CN1C(=O)C2(SCC(=O)N2c2cccc(F)c2)c2ccccc21)NCc1ccccc1Cl (centres undefined),inactive: -28%
19,CCc1nc2ccccc2n1CCCCOc1cccc(C)c1,inactive: -25.7%
20,CC(C)(C)c1ccc(S(=O)(=O)c2cnc(SCC(=O)Nc3ccc4c(c3)OCCO4)[nH]c2=O)cc1,inactive: -0.945%

row,Compound,"activity change, negative = inhibition"
1,CC(C)CC(=O)NCC(c1ccc2c(c1)OCO2)N1CCN(c2ccc(F)cc2)CC1 (centres undefined),inactive: -14.9%
2,COc1cccc2c1cc1c(=O)n(CC(=O)N3CCN(c4ccc(F)cc4)CC3)nc(C)n12,inactive: -8.99%
3,CCCS(=O)(=O)c1nc(S(=O)(=O)c2ccc(C)cc2)c(NCCCOC(C)C)s1,inactive: -23%
4,COc1ccc2nc(SCC(O)c3cccc(Br)c3)[nH]c2c1 (centres undefined),inactive: 7.3%
5,Cc1ccc(Sc2ccc(N3CCCC(C(=O)Nc4ccc(F)cc4)C3)nn2)cc1 (centres undefined),inactive: -25.6%
6,COc1ccc(-c2cn3c(n2)sc2cc(C(=O)NCCCc4ccccc4)ccc23)cc1,inactive: 5.3%
7,CCN(CC)C(=O)CSc1nc2cc3c(cc2c(=O)n1CCCC(=O)NCc1ccc2c(c1)OCO2)OCO3,inactive: -18.7%
8,O=C(Cn1nc(N2CCN(c3ccccc3)CC2)ccc1=O)NCc1ccccc1F,inactive: 0%
9,Cc1cccc(C(=O)Nc2ccccc2OCc2cc(=O)n3ccccc3n2)c1,inactive: 1.67%
10,CCOc1ccc(NC(=O)c2cn(C3CCCCC3)c(=O)c3c2c2ccccc2n3C)cc1,inactive: -8.84%
11,Cc1ccc(-c2nnc(SCC(=O)NC(C)(C)C)nc2-c2ccc(C)cc2)cc1,inactive: -13.8%
12,Cn1c(=O)c2c(nc(NCCc3ccccc3)n2Cc2ccccc2Br)n(C)c1=O,inactive: -5.89%
13,CCOc1ccc(C(=O)N(Cc2nc(-c3cccc(C)c3)no2)C(C)C)cc1,inactive: -9.55%
14,COc1ccc(-c2nc(CN3CCC(C(=O)NCc4ccc(C)cc4)CC3)c(C)o2)cc1OC,inactive: -29.6%
15,CC(=O)OCC(=O)[C@@]1(O)[C@H](OC(C)=O)C[C@H]2[C@@H]3CCC4=CC(=O)C=C[C@]4(C)[C@@]3(F)[C@@H](O)C[C@@]21C,inactive: -0.87%
16,CC(C)(C)c1cc(C(=O)O)c(NC(=O)Nc2ccc3[nH]ncc3c2)s1,inactive: -4.19%
17,CCOc1ccc(CNC(=O)CCCn2c(=O)c3cccn3c3ccccc32)cc1,inactive: 3.03%
18,CCOc1ccccc1Nc1nc2ccccc2nc1NS(=O)(=O)c1ccc(Cl)cc1,inactive: -10.9%
19,COc1ccc(C(=O)n2nc(-c3cccnc3)nc2NCc2ccccc2)cc1OC,inactive: -6.49%
